Source: the supplement of paper PMC5499739
The full ranking holds about 16,000 sequences; the median of “Z-score” is about -0.37, and the highest 2% start at about 3.2. Some of the results follow.

System: RBM10 RRM1-ZnF (GST-tagged construct)
Experiment: RNAcompete 7-mer binding Z-score; higher = stronger binding preference
Experimental: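 RNAcompete: 20 pmol GST-tagged RBM10 RNA-binding constructs were incubated with a designed RNA pool of about 241,000 sequences up to 41 nt (1.5 nmol) on glutathione beads for 30 min at 4 °C and washed. Bound RNAs were identified by microarray hybridisation. Each RNA 7-mer is scored by a one-sided Z-score of its enrichment, computed over probes that contain the 7-mer within longer pool sequences.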

Going from UCCCGAG to ACAGUAA, the “RNAcompete 7-mer binding Z-score” value rises from -0.493 to -0.00246.

First: AGGCGCA
Second: CAGGGCC
The “RNAcompete 7-mer binding Z-score” value of the first is lower: 0.0528 for the first, 0.215 for the second.

Compared with GUAUUCA, UUGAGUU is higher in “RNAcompete 7-mer binding Z-score” value: -0.5 for the first, -0.0674 for the second.

Going from CUAAACU to GACGACU, the “RNAcompete 7-mer binding Z-score” value rises from -0.678 to -0.438.

First: CUCUUCU
Second: CGGUAAU
The “RNAcompete 7-mer binding Z-score” value of the first is lower: -0.909 for the first, 0.378 for the second.

Compared with UCUGUAA, GAGACUU is higher in “RNAcompete 7-mer binding Z-score” value: -0.685 for the first, -0.457 for the second.

Going from UAAUUAA to UACCCUU, the “RNAcompete 7-mer binding Z-score” value falls from -0.435 to -0.883.

First: AUUGGCC
Second: CUCUAAC
The “RNAcompete 7-mer binding Z-score” value of the first is higher: -0.233 for the first, -0.717 for the second.

Compared with CUCGGCC, UACUGGC is lower in “RNAcompete 7-mer binding Z-score” value: -0.659 for the first, -0.662 for the second.

First: GGAACUU
Second: AAUGCGU
The “RNAcompete 7-mer binding Z-score” value of the first is higher: 0.0755 for the first, -0.366 for the second.

First: GUCCGUA
Second: AGAACCG
The “RNAcompete 7-mer binding Z-score” value of the first is higher: -0.526 for the first, -0.717 for the second.

First: UAUGAGG
Second: GGAUGCC
The “RNAcompete 7-mer binding Z-score” value of the first is higher: 1.26 for the first, 0.677 for the second.

First: UAGGUUA
Second: AAGUGCU
The “RNAcompete 7-mer binding Z-score” value of the first is higher: 1.11 for the first, -0.272 for the second.

First: UGGAGUU
Second: UACGUCA
The “RNAcompete 7-mer binding Z-score” value of the first is higher: 1.77 for the first, -0.24 for the second.

First: GAAUUUA
Second: AUUACAG
The “RNAcompete 7-mer binding Z-score” value of the first is lower: -0.36 for the first, -0.178 for the second.

First: ACUCACA
Second: UGAUUGG
The “RNAcompete 7-mer binding Z-score” value of the first is lower: -0.662 for the first, 1.44 for the second.

Going from CGUGACC to GGGCACU, the “RNAcompete 7-mer binding Z-score” value rises from -0.672 to 0.904.

Compared with UGAAGUG, CGGCAGU is lower in “RNAcompete 7-mer binding Z-score” value: 1.19 for the first, -0.116 for the second.

Compared with GUAUUCU, UUACGCC is lower in “RNAcompete 7-mer binding Z-score” value: -0.6 for the first, -0.772 for the second.

First: GCGCGGU
Second: GCAUCAG
The “RNAcompete 7-mer binding Z-score” value of the first is higher: 0.979 for the first, 0.261 for the second.

Going from GUCCCCC to GACUAGC, the “RNAcompete 7-mer binding Z-score” value falls from -0.0869 to -0.282.

First: CGACCGC
Second: GGGAAGA
The “RNAcompete 7-mer binding Z-score” value of the first is lower: -0.779 for the first, 3.86 for the second.

First: CCGGUAC
Second: UCUUGGC
The “RNAcompete 7-mer binding Z-score” value of the first is higher: -0.331 for the first, -0.539 for the second.

Compared with GGGGGGC, CUGAAGA is lower in “RNAcompete 7-mer binding Z-score” value: 2.37 for the first, -0.409 for the second.

Going from UCAUUUC to GGUAGAU, the “RNAcompete 7-mer binding Z-score” value rises from -0.909 to 1.73.

Compared with UGUUCAC, CUAUCUA is higher in “RNAcompete 7-mer binding Z-score” value: -0.766 for the first, -0.672 for the second.

Compared with UAGACUA, UACUCGA is lower in “RNAcompete 7-mer binding Z-score” value: -0.435 for the first, -0.483 for the second.

Compared with UUCCAGC, CUUGGCA is higher in “RNAcompete 7-mer binding Z-score” value: -0.727 for the first, -0.451 for the second.

Compared with CUCAAGU, GAAAACG is higher in “RNAcompete 7-mer binding Z-score” value: -0.571 for the first, 0.53 for the second.

Compared with GCCCCCG, CGUUCAG is lower in “RNAcompete 7-mer binding Z-score” value: 0.082 for the first, -0.373 for the second.

Going from AAUUCAA to CUGGAGA, the “RNAcompete 7-mer binding Z-score” value rises from -0.607 to 0.501.

First: ACACGGC
Second: CUCUCAG
The “RNAcompete 7-mer binding Z-score” value of the first is higher: -0.191 for the first, -0.552 for the second.

CGAAGAU and UCAGUAC are the same in “RNAcompete 7-mer binding Z-score” value: -0.451 for the first, -0.451 for the second.

Going from GCAAAGU to CACAAUU, the “RNAcompete 7-mer binding Z-score” value falls from 0.287 to -0.636.

Going from GAACACC to AUGGUUC, the “RNAcompete 7-mer binding Z-score” value rises from -0.483 to 0.14.

Compared with CACGCAA, AGACGUG is higher in “RNAcompete 7-mer binding Z-score” value: -0.464 for the first, 0.261 for the second.

Compared with AUUACCA, CGUUUCG is higher in “RNAcompete 7-mer binding Z-score” value: -0.772 for the first, -0.503 for the second.

Going from ACCGUGA to GGCCCAU, the “RNAcompete 7-mer binding Z-score” value falls from -0.529 to -0.711.

First: GUUUCCU
Second: GUAAGGC
The “RNAcompete 7-mer binding Z-score” value of the first is lower: -0.678 for the first, 1.67 for the second.

First: UUAGACG
Second: UGCUAGA
The “RNAcompete 7-mer binding Z-score” value of the first is higher: -0.00246 for the first, -0.233 for the second.

Going from CAACUAC to ACGCAUA, the “RNAcompete 7-mer binding Z-score” value rises from -0.591 to -0.383.

Going from CGGCGUU to UGGGAGU, the “RNAcompete 7-mer binding Z-score” value rises from -0.0122 to 2.27.

First: UUGUACA
Second: CGUCGAA
The “RNAcompete 7-mer binding Z-score” value of the first is lower: -0.379 for the first, -0.347 for the second.

Compared with CGUUCGU, ACGAACC is lower in “RNAcompete 7-mer binding Z-score” value: -0.542 for the first, -0.548 for the second.

Compared with UUGAAGU, UGACGUC is lower in “RNAcompete 7-mer binding Z-score” value: -0.262 for the first, -0.565 for the second.

First: GCAUGUA
Second: CCGAAAC
The “RNAcompete 7-mer binding Z-score” value of the first is higher: -0.253 for the first, -0.74 for the second.

Going from CCAGAUC to AGAUUCU, the “RNAcompete 7-mer binding Z-score” value falls from -0.594 to -0.756.

First: GGUUUGC
Second: CGCUCAU
The “RNAcompete 7-mer binding Z-score” value of the first is higher: 0.962 for the first, -0.769 for the second.

Going from UUCGUAG to UAUAAGG, the “RNAcompete 7-mer binding Z-score” value rises from -0.35 to 1.24.

First: AGAUCCC
Second: GACAAUA
The “RNAcompete 7-mer binding Z-score” value of the first is lower: -0.87 for the first, -0.0869 for the second.

First: CCUUAAU
Second: CCGGGCG
The “RNAcompete 7-mer binding Z-score” value of the first is lower: -0.72 for the first, 0.807 for the second.

First: UAAAGCU
Second: CCCCGCC
The “RNAcompete 7-mer binding Z-score” value of the first is lower: -0.655 for the first, -0.236 for the second.

Going from CCUGUUC to CACCCAA, the “RNAcompete 7-mer binding Z-score” value rises from -0.857 to -0.629.

Going from AGCUUGA to AGCGUCC, the “RNAcompete 7-mer binding Z-score” value falls from -0.318 to -0.707.

Going from CGCUUCC to CCUCGAU, the “RNAcompete 7-mer binding Z-score” value falls from -0.587 to -0.717.

Compared with GGACUAG, GAUUACG is lower in “RNAcompete 7-mer binding Z-score” value: 0.953 for the first, 0.0755 for the second.

Compared with CGGUUGG, AGCAGGU is lower in “RNAcompete 7-mer binding Z-score” value: 2.56 for the first, 1.8 for the second.

Compared with GUUAAAC, GUGGAAA is higher in “RNAcompete 7-mer binding Z-score” value: -0.162 for the first, 2.63 for the second.

First: AGUCGCU
Second: CACACGG
The “RNAcompete 7-mer binding Z-score” value of the first is lower: -0.35 for the first, 0.433 for the second.

First: UGUCGCU
Second: AUCGCGU
The “RNAcompete 7-mer binding Z-score” value of the first is higher: -0.396 for the first, -0.412 for the second.

First: GUCGCAC
Second: GGGUUUA
The “RNAcompete 7-mer binding Z-score” value of the first is lower: -0.207 for the first, 2.09 for the second.

Compared with UUUAAUA, UAGUCAG is higher in “RNAcompete 7-mer binding Z-score” value: -0.626 for the first, 0.3 for the second.

First: AAUUUGC
Second: GGGUUCC
The “RNAcompete 7-mer binding Z-score” value of the first is lower: -0.798 for the first, 0.683 for the second.

Compared with UGAUAGG, CGUGUGG is lower in “RNAcompete 7-mer binding Z-score” value: 2.18 for the first, 1.16 for the second.

Going from ACGCGAG to CACGUUU, the “RNAcompete 7-mer binding Z-score” value falls from 0.056 to -0.815.

Compared with CGAGUUA, ACCUCCG is lower in “RNAcompete 7-mer binding Z-score” value: -0.301 for the first, -0.681 for the second.

Compared with GCUGUGC, AGGUACA is higher in “RNAcompete 7-mer binding Z-score” value: -0.0252 for the first, 0.745 for the second.

Going from UUCCUGC to UAUUUAC, the “RNAcompete 7-mer binding Z-score” value falls from -0.779 to -0.841.

AUGACAC and CACAGAC are the same in “RNAcompete 7-mer binding Z-score” value: -0.292 for the first, -0.292 for the second.

Going from UUCGCAU to CAUAGAU, the “RNAcompete 7-mer binding Z-score” value rises from -0.75 to -0.5.

First: GCUCCAG
Second: CAACAAA
The “RNAcompete 7-mer binding Z-score” value of the first is higher: -0.344 for the first, -0.503 for the second.

First: CCCGGCC
Second: CAGAUGC
The “RNAcompete 7-mer binding Z-score” value of the first is lower: -0.558 for the first, -0.0739 for the second.

Compared with GCCACUA, AAUCAUA is lower in “RNAcompete 7-mer binding Z-score” value: -0.535 for the first, -0.587 for the second.

Compared with AUCGUCG, CGGGCGU is higher in “RNAcompete 7-mer binding Z-score” value: -0.451 for the first, 1.23 for the second.

Compared with ACACGCC, AUGACUA is higher in “RNAcompete 7-mer binding Z-score” value: -0.61 for the first, -0.288 for the second.

First: GGCGACC
Second: GAAAGUG
The “RNAcompete 7-mer binding Z-score” value of the first is lower: 0.394 for the first, 1.57 for the second.

Compared with AUGAGCU, CACUUGA is lower in “RNAcompete 7-mer binding Z-score” value: 0.056 for the first, -0.581 for the second.

Going from AGGCGAG to GCAUUAA, the “RNAcompete 7-mer binding Z-score” value falls from 1.37 to -0.539.

Compared with ACACUCU, GAAUCGG is higher in “RNAcompete 7-mer binding Z-score” value: -0.821 for the first, 1.41 for the second.

Going from CGAGUCU to CCUCAUA, the “RNAcompete 7-mer binding Z-score” value falls from -0.483 to -0.906.

First: AUUCCGC
Second: AAACGUU
The “RNAcompete 7-mer binding Z-score” value of the first is lower: -0.886 for the first, -0.344 for the second.

Going from CGAAACA to ACCAUAC, the “RNAcompete 7-mer binding Z-score” value falls from -0.399 to -0.776.

Going from UUCUCAU to CCCUGUC, the “RNAcompete 7-mer binding Z-score” value rises from -0.73 to -0.636.

Compared with AGGAGAC, GAGGGGU is higher in “RNAcompete 7-mer binding Z-score” value: 1.22 for the first, 3.59 for the second.

Compared with ACGCAUC, UUGAGCC is higher in “RNAcompete 7-mer binding Z-score” value: -0.704 for the first, -0.529 for the second.

Going from GAUCAGG to CGAACGG, the “RNAcompete 7-mer binding Z-score” value falls from 1.71 to 1.21.

Compared with UGAUAUC, ACGAAUA is higher in “RNAcompete 7-mer binding Z-score” value: -0.353 for the first, -0.24 for the second.

Compared with ACCCUGA, AUAUGAG is higher in “RNAcompete 7-mer binding Z-score” value: -0.347 for the first, 0.673 for the second.

Compared with AACAACA, UGCCAGG is higher in “RNAcompete 7-mer binding Z-score” value: -0.129 for the first, 0.42 for the second.

Going from AACACAA to UUCAUUA, the “RNAcompete 7-mer binding Z-score” value falls from -0.331 to -0.519.

First: UGGUAAC
Second: CCGGCCU
The “RNAcompete 7-mer binding Z-score” value of the first is higher: 0.982 for the first, -0.743 for the second.

First: UUUAGCA
Second: AUCAAAG
The “RNAcompete 7-mer binding Z-score” value of the first is lower: -0.652 for the first, -0.295 for the second.
